Laboratory results taken from publication PMC6919601, “Identification of Plasmodium dipeptidyl aminopeptidase allosteric inhibitors by high throughput screening” (PLoS ONE, 2019).
Where “and” joins values, the source holds several entries; their conditions need not be identical. Equal entries are not always repeated. Among all 110,000 compounds or so, about 230 (0.21%) showed an effect of 50% or more. The list shows a part of the results.

Molecular target: DPAP1 (Plasmodium falciparum, UniProt Q8IIJ9)
Sequence (Q8IIJ9 whole entry, looked up): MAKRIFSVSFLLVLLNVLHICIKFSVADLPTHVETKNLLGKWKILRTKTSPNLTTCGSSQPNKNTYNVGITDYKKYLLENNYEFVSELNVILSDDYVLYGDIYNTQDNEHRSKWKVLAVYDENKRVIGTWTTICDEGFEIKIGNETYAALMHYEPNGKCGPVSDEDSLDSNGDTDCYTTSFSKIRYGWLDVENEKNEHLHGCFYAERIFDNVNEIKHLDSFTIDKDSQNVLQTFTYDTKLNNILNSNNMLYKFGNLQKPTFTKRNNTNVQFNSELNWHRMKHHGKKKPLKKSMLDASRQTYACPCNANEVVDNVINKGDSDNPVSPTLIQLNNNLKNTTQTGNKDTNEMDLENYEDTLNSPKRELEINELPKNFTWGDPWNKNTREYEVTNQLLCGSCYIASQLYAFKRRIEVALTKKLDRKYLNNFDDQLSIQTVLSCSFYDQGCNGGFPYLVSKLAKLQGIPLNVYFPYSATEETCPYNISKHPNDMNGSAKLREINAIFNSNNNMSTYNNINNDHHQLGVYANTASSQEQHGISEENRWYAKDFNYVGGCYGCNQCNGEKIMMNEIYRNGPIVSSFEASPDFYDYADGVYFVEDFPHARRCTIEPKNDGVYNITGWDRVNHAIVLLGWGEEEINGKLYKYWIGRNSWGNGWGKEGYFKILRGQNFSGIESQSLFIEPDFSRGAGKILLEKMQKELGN
Assay: primary screen, percent inhibition; read by cleavage of a fluorogenic dipeptide substrate; higher = more effect of the substance
Set-up: species or system P. falciparum D10 trophozoite lysates; single well
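Further: 30 min substrate incubation versus DMSO and 10 µM JCP410 controls.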

Compound | % Inhibition @ 10 uM
COC(=O)C1=CN(C2CC2)C=C(C(=O)OC)C1c1ccccc1Cl | -7.18%
c1ccc(-c2nc(-c3cccs3)[nH]c2-c2ccccc2)cc1 | 1%
c1cncc(CN2CNc3nc4ccccc4n3C2)c1 | -1.72%
Cc1cc(C)nc(NC(=O)c2c(-c3ccccc3Cl)noc2C)c1 | -5.98%
Cc1nnc(NC(=O)CSc2nnc(Cc3cccn3C)n2-c2cccc(C)c2C)s1 | 0.226%
COC(=O)/C=C1\SC(NC(=O)c2ccc(OC)cc2)=NC1=O | -1.52%
O=C(c1ccc(CS(=O)(=O)c2ccc(Br)cc2)o1)N1CCCCC1 | -3.09%
O=c1c2cccnc2n(Cc2ccccc2F)c(=O)n1Cc1ccc2c(c1)OCO2 | 1.72%
COC(=O)c1cc(S(=O)(=O)NCCCN2CCCC2=O)cn1C | 3.78%
C=CCNC(=O)/C(C#N)=C/c1c(Oc2ccccc2Cl)nc2c(C)cccn2c1=O | 2%
CCN1CCN(C(=O)C(NC(=O)c2ccc(C34CC5CC(CC(C5)C3)C4)cc2)C(C)C)CC1 (stereo not shown) | -1.73%
N#CC1=C(N)Oc2[nH]nc(-c3ccc(Cl)c(Cl)c3)c2C1c1cccc(O)c1 (stereo not shown) | -7.18%
O=C(c1ccc2c(-c3ccccc3)[nH]nc(-c3ccccc3)c1-2)C(F)(F)F | 0.968%
Cc1ccc2ncnc(NCc3ccco3)c2c1 | 7.93%
O=S(=O)(c1c[nH]cn1)N1CCN(Cc2ccc3c(c2)OCO3)CC1 | 1.56%
COC(=O)c1ccc(OCC(O)CN2CCOCC2)cc1 (stereo not shown) | -9.16%
O=C(O)c1cc2c(o1)CCC/C2=N/O | -2.28%
Cc1ccc(Cn2cc(/C=C3\C(=N)N4N=C(N5CCOCC5)SC4=NC3=O)c3ccccc32)cc1 | -1.66%
Nc1ccc2ccccc2c1S(=O)(=O)O | -1.91%
O=C(COc1ccccc1)N1CCCCC1 | -2.42%
CCOC(=O)N1CCC(N2CCCC(C(N)=O)C2)CC1 (stereo not shown) | -3.6%
Cc1cc(C)c(C2C(C#N)=C(N)Oc3[nH]nc(C)c32)cc1COc1ccccc1Cl (stereo not shown) | 4.18%
O=C1C2C3CCC(O3)C2C(=O)N1c1cnn(Cc2ccc(Cl)c(Cl)c2)c1 (stereo not shown) | -3.65%
COc1ccccc1N1CCN(C(=O)CN(c2ccccc2F)S(C)(=O)=O)CC1 | 4.57%
COc1ccccc1-c1nnc(C2CCN(C(=O)c3ccc(F)cc3F)CC2)o1 | 2.13%

Compound | % Inhibition @ 10 uM
Cc1ccc(C2C3=C(O)CCCC3=Nc3nc(SCC(=O)NCc4ccccc4)nc(O)c32)cc1 (stereo not shown) | 2.33%
NC(=O)c1c(-c2ccccc2)csc1NC(=O)COc1ccccc1Cl | -2.87% and 5.99%
CCS(=O)(=O)C1=NN2C(=N)/C(=C\c3ccc(-c4cccc(C(=O)O)c4)o3)C(=O)N=C2S1 | 5.1%
CCc1ccc(OCC(=O)Nc2ccc(S(=O)(=O)Nc3nc(C)cc(C)n3)cc2)cc1 | -2.34%
Cc1ccc(S(=O)(=O)N2CCN(c3ccc4nnc(-c5ccccc5)n4n3)CC2)cc1 | 3.45%
CCN1CCN(Cc2nc3c(c(=O)n(C)c(=O)n3C)n2Cc2cccc(Cl)c2)CC1 | 2.9%
Oc1cc(-c2ccccc2)nc(-c2ccc(Br)cc2)n1 | 1.91%
C#CCN1Cc2cc(OC)c(OC)cc2C2(CCCC2)C1 | -3.85%
Cc1nn(C)cc1/C=C1\CCC/C(=C\c2cn(C)nc2C)C1=O | -4.77%
COc1cc2c(cc1OC)C(c1ccccc1[N+](=O)[O-])NCC2 (stereo not shown) | 6.18%
Cc1ccc(C(=O)N/C(=C\c2ccc3c(c2)OCO3)C(=O)NCCC(=O)O)cc1 | 0.222%
CCOc1ccc(S(=O)(=O)c2cnc3ccc(CC)cc3c2O)cc1 | -7.13%
CC(C)(C)c1ccc(Cn2ncc3ccccc32)cc1 | 1.67%
COc1ccc(Br)cc1C1=N/C(=C\c2ccc(C)cc2)C(=O)O1 | 3.26%
COC(=O)c1c(NC(=O)/C=C/c2ccc(OC)c(OC)c2)sc(-c2ccccc2)c1C | -7.22%
CCc1ccc(C2c3c(oc4ccccc4c3=O)C(=O)N2c2nncs2)cc1 (stereo not shown) | 0.2%
Cc1ccc(CNC(=O)c2cc3c(=O)n(Cc4cccs4)ccc3nc2C)cc1 | -0.12%
CC(COc1ccc2c(c1)OCO2)NC(=O)Cc1nnc(O)c2ccccc12 (stereo not shown) | -2.84%
O=C(c1ccccc1)N1CCN(C(=O)C2CC2)CC1 | 1.03%
CCn1cc2nc(SCC(=O)NCc3ccccc3Cl)n(CCc3ccccc3)c(=O)c2n1 | -3.79%
CCOCCCN1CC(C(=O)NCc2ccc3c(c2)OCO3)CC1=O (stereo not shown) | -2.99%
Cc1cccc(C)c1NC(=O)COc1ccccc1 | 1.44%
CC(C)CN(CC(C)C)C(=O)C(CC1CCCCC1)C(=O)NCC#N (stereo not shown) | -0.214%
COC(=O)c1ccc(-c2ccco2)n1Cc1ccc(Cl)cc1 | 1.22%
Brc1ccc(CN2CCN(Cc3ccccc3)CC2)s1 | -3.13%

Compound | % Inhibition @ 10 uM
CCCn1c2ccccc2c2cnn(CC(=O)N(C)Cc3ccccc3)c(=O)c21 | 6.14%
Cc1c(CC(C)C)nc(N)c(C#N)c1-c1ccccc1 | 99.3%
O=C(Cn1ncc2c3ccccc3nc-2c1O)N(Cc1ccccc1)Cc1cccs1 | 0.231%
Cc1ccc(CNC(=O)c2c(C)cc(=O)oc2C)cc1 | -2.26%
COc1ccc(NC(=O)C23CC4CC(C2)CC(n2cnc(Br)n2)(C4)C3)c(OC)c1 | 0.431%
COc1ccc(-c2noc(CCC(=O)N3CCN(Cc4ccccc4)CC3)n2)cc1 | 0.402%
N#C/C(=C/c1ccc(Cl)cc1)NC(=O)c1ccccc1 | -3.26%
CC(Sc1nnc(COc2ccc(Br)cc2)n1-c1ccccc1)C(=O)O (stereo not shown) | -5.15%
COc1ccc(-c2noc(CN(C(=O)c3cccs3)C3CCCCC3)n2)cc1 | 0.486%
COc1ccc2c(c1)OCC/C2=N/OC(=O)c1ccc(C)cc1 | -6.69%
CC(=O)c1ccc2[nH]c3ccccc3c2c1 | -3.48%
c1ccc2c(c1)N1CCCN=C1N2CCN1CCOCC1 | -5.16%
O[C@@]1(c2ccccc2)CCN[C@H]2CCCC[C@@H]21 | -4.61%
Cc1ccc(CNC(=O)CCS(=O)(=O)Cc2ccc(C)cc2)cc1 | -1.21%
Cc1cc(-n2nc(C)cc2C)nc(-c2ccccc2O)n1 | -0.736%
COc1cc2c(cc1C)/C(=N/OC(=O)c1cc(OC)c(OC)c(OC)c1)CCC2 | 3.16%
CCOc1cccc(C(=O)Nc2ccc(-c3nc4ccccc4[nH]3)cc2)c1 | 4.44%
O=C(NCCc1ccc(Cl)cc1)C12CC3CC(CC(C3)C1)C2 | 1.76%
Cc1cccc(C(=N)NOC(=O)c2ccc3c(c2)OCO3)c1 | -9.83%
CC(C)=Cc1ccc2c(N)c(C#N)sc2n1 | -1.96%
COc1ccccc1Nc1nc(N)nc(CSc2nccn2C)n1 | 3.92%
COc1ccc2sc(N(CCN(C)C)C(=O)c3ccc4ncsc4c3)nc2c1 | -1.41%
COc1ccc(C2CC(O)=C/C(=N/c3ccc(Cl)cc3)C2)cc1 (stereo not shown) | 3.19%
CCCn1c(C)c(C(=O)OCc2ccccc2)c2cc(O)ccc21 | -3.13%
c1ccc(CCCN2CCN(c3ccccc3)CC2)cc1 | 1.26%

Compound | % Inhibition @ 10 uM
CC1CCN(c2ncnc3ccccc23)CC1 | -3.01%
Cc1ccc(C(=O)Nc2sc(C)c(C)c2C(=O)OC(C)C)o1 | 1.64%
N#CCNC(=O)[C@H](Cc1cc(I)c(O)c(I)c1)NC(=O)c1ccc(OC(F)(F)F)cc1 | -3.04%
N#CC1=C(N)C2=CCCC[C@H]2[C@H](c2cccnc2)C1(C#N)C#N | 19.6%
COC(=O)C1=C(C)N(CCc2ccc(OC)c(OC)c2)C(=O)C1 | 6.89%
CC1CN(Cc2ccc(F)c(Br)c2)CC(C)O1 (stereo not shown) | 1.87%
CC(=O)c1ccc(N2CCN(Cc3ccccc3C)CC2)cc1 | 1.87%
CCC1CCCCN1C(=O)CSc1nnc(-c2ccccc2)o1 (stereo not shown) | -0.999%
CCCNC(=O)CCCN1C(=O)c2ccccc2Sc2ncccc21 | 6.66%
CCOC(=O)C1CCCCN1Cc1cc(Br)cs1 (stereo not shown) | 4.04%
COc1ccc(CCNc2nc3c(c(=O)[nH]c(=O)n3C)n2CCC#N)cc1OC | -1.76%
COc1ccc(C(NC(=O)C(C)C)c2ccc3cccnc3c2O)cc1OC (stereo not shown) | -3.23%
Cc1cccc(N2C(=O)c3ccc(C(=O)O)cc3C2=O)c1C | 0.843%
CCOc1ccc(N(CC(=O)OC)S(=O)(=O)c2ccccc2)cc1 | -0.216%
COc1ccc2nc(NC(=O)Cn3nc(C)n4cccc4c3=O)sc2c1 | -4.43%
Cc1nn(CC(=O)NCCc2ccc(Cl)cc2)c(=O)c2cccn12 | -6.99%
CCCn1c(SCC(O)c2ccc(OC)cc2)nc2ccccc21 (stereo not shown) | 3.66%
Cc1cc(C(=O)N2C(C)COCC2C)c(C)o1 (stereo not shown) | -1.91%
CCCNC(=O)c1cc2sc(Cl)cc2n1CC | -3.08%
CC(C)NS(=O)(=O)c1ccc(OCC(=O)NCCO)cc1 | -1.41%
CN1C(=O)c2ccccc2C(C(=O)NCCN2CCc3ccccc3C2)C1c1cn(C)c2ccccc12 (stereo not shown) | -7.27%
Cc1nc2c(C(=O)NCc3ccc4c(c3)OCO4)cnn2c(C)c1Cc1ccc(F)cc1Cl | 1.27%
CC(C)CCCC(C)NC(=O)c1ccc(Br)o1 (stereo not shown) | 0.214%
COc1ccc(CN(Cc2ccccc2)S(=O)(=O)c2ccc(-n3cnnn3)c(C)c2)cc1 | 2.08%
COCCCn1c2c(c(=O)[nH]c1=O)C(c1ccc(C)cc1)C1=C(O)c3ccccc3C1=N2 (stereo not shown) | -2.75%
